# The list shows a part of the results.
# Test system: PfHDP1 homeodomain (GST-tagged)
# Test: gcPBM binding intensity (ln(normalized median fluorescence intensity)); higher = stronger DNA binding
# Method in brief: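 Using an Agilent 4 × 180k array, primer-extended double-stranded 36-bp intergenic genomic probes and negative controls were exposed for 1 h to GST-fused P. falciparum DNA-binding domains expressed in E. coli. Binding was carried out in 1× PBS with 1% milk, 0.2 mg/ml BSA, 0.5% salmon testes DNA and 0.03% Triton X-100, and protein was detected with Alexa488 anti-GST antibody and a 488 nm scan. Binding intensity is the highest Masliner-normalised natural-log median intensity across replicate spots of either probe orientation.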
row,Sequence,gcPBM binding intensity (ln)
1,TATATATATATATATTGTACTATATAGTATCTTTTT [XGTACX_site1646],9.16
2,TACCCTTGCATGTAGGTGCAATTTTTTTTTTTTTTT,9.32
3,TTCGTAATTTATATCACACACATATATATATAATAA [CACACA_site3115],7.07
4,CAACTTTATACATATAGTACAAGTTATATTTTATTA [XGTACX_site6651],6.13
5,AAATTTGAAATGCATGAACACACACCGCTATAAATG [CACACA_site8230],6.83
6,TAAATATAGAAACACACACACATTAATACATATATT [CACACA_site3489],6.68
7,TAATTTTTTATATATTGTACAAATAATATATGATGT [XGTACX_site268],6.55
8,AAGGTATACACTGCTTTATCAAGTTTAACTCTTTTT [XGTACX_negctrl_site118],6.26
9,ACATCATAAAATTTATGTACACATTTTTAATTATAC [XGTACX_site7759],6.51
10,ATCATTTTTATGTACACACACATATACGTTGAATAT [CACACA_site1865],7.04
11,AAGATATGAGGGAATACACACATATTTATATTTATA [CACACA_site6846],6.29
12,TATAAAATTTACGTGTGTACATATTTAATAATTTTT [XGTACX_site5001],6.58
13,ATATATATATAATTATATAAAATATATCATATGTTA [XGTACX_negctrl_site47],8.3
14,AAGAAATAAATACATACACACATATATAAATAAATA [CACACA_site7559],6.66
15,AAGAAATAATTATTATGTACTTAAAAAAATTAAAAT [XGTACX_site7423],6.28
16,TTTATGTATTTAATATGTACATATAGTTGTTAATAA [XGTACX_site1938],6.52
17,GCTATATATTAATGTTGTACTTTATGTTCATATTGT [XGTACX_site3619],6.58
18,AAAATGTACGCATATACACACACATAAATAGATACG [CACACA_site9124],6.82
19,AATAAAAATAAAAGCACACATAAATATATATATATT [CACACA_site1441],6.55
20,TCATGGCCATTTTCAGTGCATATGTGTATTTAATAT [GTGCAC_site9529],9.34
21,GCAAGTCCATGAACGGTGCAGGAATTAACAAAAATA,7.43
22,GTTTCTACTTATATAACAGGACACGTGTGAATAATT [TGCATGCA_negctrl_site430],7.17
23,AAAAAAAAAAAACATTGTACGCACATTTTATATGTC [XGTACX_site6974],6.69

row,Sequence,gcPBM binding intensity (ln)
1,TTGAAGGTGGCAATGTGTACATAGAATAACCAGTGC [XGTACX_site4738],6.71
2,ACAATTGCATCTATCACACATACATACATACATACA [CACACA_site5063],7.74
3,AAAAAAATACATACGTGTACCCACATATATGTATCT [XGTACX_site5319],6.01
4,TATAAATATCTGTATGCACACATTTTTTTTGGAAAA [CACACA_site4734],9.28
5,TCAACAAAATTGAAGGAACACACATACATATATATA [CACACA_site7940],6.67
6,ATTTTTTCTCATAAAAACGTGAACGTTTATTTTACA [CACACA_negctrl_site1041],6.69
7,ATTATAAAAGAATTTTTTTTTATTTCATTAAAATAT [CACACA_negctrl_site1137],5.62
8,AGCACATAAATAATTAAACACACATTGTTCTAGACA [CACACA_site8746],6.3
9,TTACTATAAAATGTCACACATTCTGTTTCCTTACTT [CACACA_site5714],6.36
10,TCATGGGTGTATTTCACACACGGATAATCATTTATA [CACACA_site4663],6.41
11,TATAATGATGATGATAGTACGTATTAGTATAAAAAA [XGTACX_site9],6.82
12,TCATAAAAATAAAAATGTACACATTAGAAATATTGT [XGTACX_site3671],6.58
13,ATATTTTTTTTTGTTACACACGTTTTTTAAAAAATG [CACACA_site1603],7.07
14,AGAAATAAAAAAAAAAATATATATATTATATATATA [CACACA_negctrl_site1799],7.74
15,TTATAATTTTTCTATTGTACATTTAATAATATATAT [XGTACX_site7326],6.59
16,TTATACATATTTATATGTACGTAATATAATATTAAT [XGTACX_site6520],6.6
17,TATTTAATTTATACACGTACATATATAAATAATACA [XGTACX_site1148],6.55
18,ATGAAGAAATAAATGTGTACATATCTTAGTATCATA [XGTACX_site8658],6.48
19,TTATAAAATAAACTTACACACATGAAATATTATAGT [CACACA_site7000],6.35
20,CAAACAAATTGTGAAACACACATATTTATATTTATA [CACACA_site7030],6.15
21,TTTATATGCAATTAAGTGCATAAGAAAAAAAAAGGA [GTGCAC_site9966],10.1
22,TATATTATATATTTATGTACGTATTTGTAAAAAGAT [XGTACX_site3444],6.86
23,TTATAATAAATATTTATTATATATAATATATATTAC [CACACA_negctrl_site1802],6.52

row,Sequence,gcPBM binding intensity (ln)
1,TTTTTTATTAAATATATATAATAATAATAATTTGTA [CACACA_negctrl_site1719],5.9
2,TTTGTTTTATGTGGTTGTACACAAATACAATTTAAA [XGTACX_site5156],6.4
3,GTTTCCTTAATATTCACACACATATCTATAATATAT [CACACA_site6959],7.22
4,ATAATAATTATATCAGTGCGCATATATATTTATTTA,7.29
5,TCATAGCACAAAAAATGTACTTATTATTTAATATTT [XGTACX_site5687],6.32
6,ATGTGATAATTTAATAGTACATAACAGTTTAACAAT [XGTACX_site5854],6.86
7,CAAAATTAATAAGTCACACACACATATATAATATAT [CACACA_site798],6.87
8,TATATTTATACAATATGTACATATTATATATATATA [XGTACX_site3098],8.6
9,TATAAAAATATATGCACACAAATAAAAAATTATATA [CACACA_site3629],9.87
10,GATCATAATATTTAAAAGAATATATATAAAAAGGAA [XGTACX_negctrl_site310],6.66
11,ATGGTATCTTTTAGAAGTACATCATGATAATAATTT [XGTACX_site5544],6.36
12,GTATTAATTTATATATGTACATATGTGATATATATA [XGTACX_site5825],6.85
13,CACTTAAAAAAAATACGTACACATATATATATATAT [XGTACX_site2054],9.39
14,TATCAGTATACAACAACACACATAATGTTTGTCATC [CACACA_site2980],6.67
15,CAAAAATAAATATAAACACACAATAAATAAATAAAT [CACACA_site891],6.6
16,ATTTAATAACGGCATGCATGTCCTTATATAAATTTA [TGCATGCA_site1012],6.66
17,TGAATTGTAATTTATAATATACGTGGTTTCTACTTA [CACACA_negctrl_site559],6.16
18,CCTTACCAAATAATATGTACACATTTAATGTTATAT [XGTACX_site7840],6.67
19,TATTATATATTATATAGTACATATTTATGTAAGAGG [XGTACX_site3099],6.97
20,TATCAAAAAAAAAGTAGTACGATAATAGTTTCCCAA [XGTACX_site1812],6.44
21,AAAAAAAAAACAAATGCATGTAATATAAGAATTACA [TGCATGCA_site908],6.13
22,ACTTATAATATTTAGTGTACATATTGTGACTAATAC [XGTACX_site1508],6.54
23,ATTTTAAAAAATTAATGTACTTAATTAATACTGAAA [XGTACX_site7702],6.18

row,Sequence,gcPBM binding intensity (ln)
1,TATTTATAAATTTACACACACACATGTGAACATAAA [CACACA_site1909],6.82
2,TGGAATAAAAAAAGGAGTACAATTAATTATTCTTAA [XGTACX_site8299],6.3
3,TATATATATATATATGTGCACATATTTATATGTTTT,10.3
4,CACCCATACACATACAAACACACATTCTATATATAT [CACACA_site1600],7.21
5,GAAATTAAATGACATACACACTATATTATATATTTT [CACACA_site5693],6.36
6,TAGATAGATTAAAATACATGCATATTATTAAAAAAT [TGCATGCA_site739],6.36
7,TATCTTCAATGTGAAAGTACTTAAATTGTTATAAAA [XGTACX_site2586],6.3
8,AATCATAAACATTATGCACACAAAAATAAAAAAAAA [CACACA_site8289],8.58
9,ATTTAATGTATTTTGCGTACGAATTATTTTATTTCA [XGTACX_site7331],6.6
10,CATACATACATACATACACACATACATATGTATATA [CACACA_site7216],7.57
11,AGCATAAAAATGATATGTACATATATATATATATAT [XGTACX_site2836],9.34
12,ATATAGTTCGATATAGTTAGTATGAATTGAAAAATA [CACACA_negctrl_site1826],6.16
13,AAAAAAATAAAACACACACACAAAAAAATAAAAATA [CACACA_site465],6.91
14,TTTTTAAAATATTTAACACACAATTTTAATGCATAA [CACACA_site6036],6.36
15,GTTGTGTAATTCGTAACACACATAAAATATATATAA [CACACA_site6059],6.56
16,TTTTCATTTTTTTTTTTTTTTTTTTTTCTTTTTTTT [CACACA_negctrl_site1312],5.86
17,ATTTCTTTAATATACACACACCAAAACAAAAAAAAA [CACACA_site6416],6.86
18,ATTTGTTCATTTGGTTGTACATAATTTATTTTTATA [XGTACX_site785],6.36
19,AAAATAAAATAACGTTGTACAACATCATTTCTATAT [XGTACX_site5080],6.37
20,AACAATATATTGAATAGTACATATATATAAACATAT [XGTACX_site2811],6.64

# Source: the supplement of paper PMC11417369
